# The RNAGym collection of RNA variant scans (doi:10.7554/elife.90254)
# Read counts are not given, so values of variants with three or more changes are uncertain.
# B1: LINE1-mini (parent)
# chain: GGCAGAGCUCAACACAGCGUGGCAAAGUGGCUGUGGCUAGACUGCC
# Variants of: B1
# Test: self-cleavage, relative activity (ratio to wild type); higher = more cleavage; in vitro, sequencing; the parent is a self-cleaving ribozyme
row,Variant,self-cleavage
1,GGCAGAGCGCAACACAGCGUCGCAAAGUGGCUGUGGCUAGACUGCA,0.1
2,GGCAGAGCGCAACACAACCUGACACAGUGGCUGUGGCUAGACUGCC,0.05
3,GGCAGAGCGCAACACAGCGUGGCUAAGUGGCUGUGGCUCGACUGCC,0.06
4,GGCAGAGCGUAACACAGCGUGGCAAAGUGGCUCUGGCAAGACUGCC,0.01
5,GGCAGAGCGCAACACAGCGUGGCAAAGUGGAUGUGGCUAGAAUGCC,0.01
6,GGCAGAGCGCAACACACCUGCGCAAAGUGGCUGUGGCUAGACUUCC,0.02
7,GGCAGAGCGAAACACAGCGUGCCAAAGUGGCUGUGGCUAGACUGCC,0.02
8,GGCAGAGCGCAACACGGCGUAGCAAAGUGGCUGUGGCUAGAUUGCC,0.13
9,GGCAGAGCCCAACACAGCGGGGCAAAGUGGCUGUGGCUAGACUUCA,0.01
10,GGCAGAGCGCACCACAGCGUGGCAAAGUGGCUGUGGCCAGACUGCC,0.02
11,GGCAGAGCGCAAGACAGCGUGGCAAAGGGGCUGUGGCUAGACUGCC,0.06
12,GGCAGAGCGCAACACAGCGUGGCAAAGUGGCUGUGGUUAGACAGCU,0.19
13,GGCAGAGCGCAAAACAGCGUGGCAAAGUGGCUGUGGCUAAACUUCC,0.03
14,GGCAGAGCGCAACACAGGGUGACAAAGUGGCUGUGGCUAGACUGCC,0.03
15,GGCAGAGCGCAACAGAGCGUGGCAAAGUGGGUGUUGCUAGCCUGCC,0
16,GGCAGAGCGCAACAGAGCGUUGAUAAGUGGCUGUGGCUAGAAUGCC,0.02
17,GGCAGAGCGCAACGCAGCGAGCGAAAGUGGCUAUGGGUAGACUGCC,0.01
18,GGCAGAGCGCAACACAGAGUGGCAAGGUGGCUGUGGUUAGAUUGAC,0.06
19,GGCAGAGCGCAACAUAGCGUGGCAAAGAGGCUGUGGCUAGACUGCC,0.04
20,GGCAGAGCGCAUGACAGCGUGGCAAAGUGGCUAUGGCUAGACUGCC,0.08
21,GGCAGAGCCCAACACAGCGUGGCAAAGUGGCGGUCGCUAGACUGCC,0.02
22,GGCAGAGCGGAACAAAGCGAGGCAAAGUGGCUGUGGCUAGACUGCC,0.03
23,GGCAGAGCGCAACACAGCGUGGCAAAGUGGCUGUGGCUAGACUGAU,0.11

row,Variant,self-cleavage
1,GGCAGAGCCCAACACAGCGAGGCAAAGAGGCUGUGGCUAGACUGCC,0.02
2,GGCAGAGCGCAACCCAGCGUGGCAAAGUGGCUGUCGCUAGACUUCC,0.01
3,GGCAGAGCGCAACACAGCGUGGAAAAGUGGCUGUGGCCAGACUGCC,0.04
4,GGCAGAGCGCAACACAGCGUGGCAAAGUGGCUGUGGUAAGACUGCA,0.03
5,GGCAGAGCGCAAGACAGCCUGGCAAAGUUUCGGUGGCUAGACUGCC,0.06
6,GGCAGAGCGCAACACAGGGUGGCAAAGUGGCUGUGGCUACACUGCC,0.05
7,GGCAGAGCGCAACACACCGUGGCAAAGUGGCUGUGGUUAGACUGCC,0.35
8,GGCAGAGCGCAACCCAGCGUGGCAAAGUGGCUGUGACUCGACUGUC,0.03
9,GGCAGAGCGCAACAGAGCGUGGCAAAAUGGCUGUGUCUAGACUGCC,0.03
10,GGCAGAGCGCAACUCAGCGUGGCAAACUGGCUGUGGCUAGACUGUC,0.01
11,GGCAGAGCGCAACAUAACGUGGCAAAGUGGCUGUGGAUAGACUGCC,0.07
12,GGCAGAGCGGAACACAACAUGGCAAAGUGUCUGUGGCUAGACUGCC,0.01
13,GGCAGAGCGCAACAAAGCGUGGCAAAGUGGCUGUGGCUAGACUGCA,0.05
14,GGCAGAGCCCAACACAGCGACGCAAUGUGGCUGUGGCUAGACUGCC,0.01
15,GGCAGAGCGCAACACAGCGUGGCAGUGUGGCUGUGGCUAGACUGCC,0.08
16,GGCAGAGCCCAACACAGCGGGGCAAAGUGGCUGUGUCUAGACUGCC,0.07
17,GGCAGAGCGCAAAACAGCGUGGUAAAGUGGGUGUGGCUAGACUGCC,0.08
18,GGCAGAGCGCAACACAGUGUGGCAAAGUGGCUGUGCCUAGACCGCC,0.01
19,GGCAGAGCGCAACACCGCGUGGCAAAGUGGCUGUGGCUAGACAUGC,0.02
20,GGCAGAGCGAAACACAGCGUGGCAAAGUGGCUGUGGCUAGCCUGCC,0.03
21,GGCAGAGCGCAACACAGCGUGGCAACGUGGCUGUGGCUAGGCUGCC,0.09
22,GGCAGAGCGCAACACAGCAUGGCAAAGUCGCUGUGGCGAGACUGCC,0
23,GGCAGAGCGCCACACAGCGUGGCUAAGUGGCUGUGGAUAGACUGCC,0.01

row,Variant,self-cleavage
1,GGCAGAGCGCAACACAGCGUGGCGAAGUGGUUGUGGCUAGAGUGCC,0.01
2,GGCAGAGCGCAACACAUCGUGUCAAAGUGGCUGUGGCUAGACUGCC,0.04
3,GGCAGAGCGCACCACCGCGUGGCAAAGUGGCUGUGGCUAGACUGCC,0.02
4,GGCAGAGCGCAACAUAUCCUGGCAAAGUGGCUGUGGCUACACUGCC,0.06
5,GGCAGAGCGCAACACAGUGUGGCAAAGUCGCUGUGGUUAGACUGCC,0.06
6,GGCAGAGCGCAACACAGCGUGGCCUAGUGGCUGUGGCUAUACUGCC,0.03
7,GGCAGAGCGCAACACAUCGUGGCAAAGUGGCUGUGCCUAGACUGCC,0.03
8,GGCAGAGCGCAUCACAGCGUGGCAAAGUGCCUGUGGCUAGACUGCC,0.02
9,GGCAGAGCGCAACAUAGCGUGGCAAAGUGGCUGUGGCUAGACAGGC,0.03
10,GGCAGAGCGCAACAUAGCGUGGCAAAGUGGCUAUGGCUAGACUGCC,0.09
11,GGCAGAGCGCGACACAGCGUGGCAAAGUGGCAGUGGCUAGACUGAC,0.03
12,GGCAGAGCGCAACACAGCGUACCAAAGUGGCUGUGGCUAGACUGCC,0.16
13,GGCAGAGCGCAACAGAGCGUGGCAAAGUGUCGGUGGCGAGACUGCC,0.1
14,GGCAGAGCGGAAAACAGCGUGGCAAAGUGGCUGUGGCUAUACUGCC,0.03
15,GGCAGAGCGCAAUACAGCGUGGCAAAGUGGCCGCGGCUAGACUGCC,0.11
16,GGCAGAGCGCAACACGGCGUGGCAAAGUGGCUGCGACUAGACCGCC,0.03
17,GGCAGAGCGCAACACAGCAUGGCAAAGUGGAUGUGGCUAGACUGCC,0.01
18,GGCAGAGCGCAACCCAGCGUGGCCAAGUGCCUGUGGCUAGACUGCC,0.03
19,GGCAGAGCGCAACACAGCGUGGCAGAGUGGCCGUGGCUAGACUGCC,0.01
20,GGCAGAGCGCAACUCAGCCUGGCAAAGUGGCUGUGUCUAGACUGCC,0.21
21,GGCAGAGCGCAACACAGCGUGGCAAAGUGGCUGUGGAAAGACUGCC,0.03
22,GGCAGAGCCCAACACAGCGUGGCAAAGGGGUUGUCGCUAGACUGCC,0.08
23,GGCAGAGCGCCACACAUCGUGGCAGAGUGGCUGUGGCUAGACUGCC,0

row,Variant,self-cleavage
1,GGCAGAGCGCAAAACAGCGUGGCAAAAGGGCUGUGGCUAGACUGCC,0.03
2,GGCAGAGCGCAACUCAGCGUGGCAAAGUGGCUGUGGCUACAAUGCC,0.13
3,GGCAGAGCCCAACACAGCGUGGCAAAGUGGCCUUGGCUAGACUGCC,0
4,GGCAGAGCGUACCACAGCGUGGCAAAGUGGGUGUGGCAAGACUGCC,0
5,GGCAGAGCGCAGCACCGCGUGGCAAAGUGGCUGUGGCUAGACUGCC,0.01
6,GGCAGAGCGCACCACAGCGUGUCAAAGUGUCUGUGGCUCGACUGCC,0.01
7,GGCAGAGCGCAACCCAGCGUAGAAAAGUGGCUGUGGCUAGACUGCC,0.04
8,GGCAGAGCGCAACACGGCGUAGCAAAGUGGCUGUGGCUAGACUGCC,0.07
9,GGCAGAGCGCAACACGGCGUUGCAAAGUGGCUGUGGCUAGACUGCC,0.16
10,GGCAGAGCGAAACACAACGUGGCAAAGUGGCUGUGGCUAGACUGCC,0.03
11,GGCAGAGCGGAACACAGCGUGGCAAAAUGGCUGUGGCUAGACUGCG,0.01
12,GGCAGAGCGCAACACAGCGUGGCACAGUUGCUGUGGCAAGACUGCC,0.02
13,GGCAGAGCGCAGCACAGAGUGGCAAAGUGGCUGUGGCUAGACUGCC,0.01
14,GGCAGAGCCCAACACAGCGUGGCAAAGAGGGUGCGGCUAGACUGCC,0.02
15,GGCAGAGCGCAAUACAGCGUGGCAAAGUGGAUGUGGCUAGCCUGCC,0.09
16,GGCAGAGCGCAACUCAGCGUGGCAAAGUGGGUGUUGCUAGACUGCC,0
17,GGCAGAGCGCAACACAACGUGGCAAGGUGGCUGUGGCUAGACCGCC,0.01
18,GGCAGAGCGCAACACGGCGUGGAAAAGUGGCAGUGGCUGGACUGCU,0
19,GGCAGAGCGCAUCACAGCGUGGCUAAGUGGCUGUGGCUAGACUGCC,0.05
20,GGCAGAGCGCAAAACAGAGUGGCAACGUGGCUGUGGUUAGAGUGCC,0.01
21,GGCAGAGCCCAACACAGCGUGGCAAAGUGGCUGUGGCCAGACUACC,0.03
22,GGCAGAGCGCAACAAAGCGGGGCAAAGUGACUGGAGCUAGACUGCC,0.09
23,GGCAGAGCCCAACACAGCGUGGCAAAGUGGCCGUGGCUCGACUGCC,0.03

row,Variant,self-cleavage
1,GGCAGAGCGCACCACAGCGUAGCAAAGUGCCUGUGGUUAGACUGCC,0.02
2,GGCAGAGCGCAUAUCAGCGUGGCAAAUUGGCUGUGGCUAGACCGCC,0.04
3,GGCAGAGCGCAACAAAGUGUGGAGAAGUGGCUGUGGCUAGACUGCC,0.05
4,GGCAGAGCGCACCACAGCGUGGCAAAGUGACUGUGGCUAGAAUGCU,0.04
5,GGCAGAGCGCAACACAGCGUGGCCAAGUGGCUGUGGCGAGACUGCC,0.03
6,GGCAGAGCGCUGCACAGCGUGGCAAAGUGGCUGUGGCUAGACUGCU,0.02
7,GGCAGAGCGCAACACAGUGUGGCAAAGUGACAGAGGCUAGACUGCC,0.03
8,GGCAGAGCGCAACACAGCGUGGCCAAGUGGAUGUGGCUAGACUGCC,0.04
9,GGCAGAGCGCAACGCAGCGAGACAAAAUGGCUGUGGCUAGACUGCC,0.04
10,GGCAGAGCGCAACACGGCGUAGCAAAGUGGCUUUGGCUAGACUGCC,0.07
11,GGCAGAGCGCAACAGAGCGUUGUAAAGUGCCUGUGGCUAGACUGCC,0.01
12,GGCAGAGCGCAACAAAGCGUGGUAAAGUGGCUGUGGCUAGACUGCC,0.05
13,GGCAGAGCGAAAUACAGUGUGACAAAGUGGCUGUGGCUAGACUGCC,0.03
14,GGCAGAGCGCGACACAGCGUGGCAAAGUGUCUUUGGCUAGACUGCC,0.01
15,GGCAGAGCGCAACACAGCGUGGAAAACUGGCUGUGGGUAGACUGCC,0.07
16,GGCAGAGCGCAACAAAGCGUGGGCAAGUGGCUGUGGCUAGACUGCC,0.03
17,GGCAGAGCGCAACACAUUGUGGCAAAGUGGCUGUGGCUAGACCGGC,0.05
18,GGCAGAGCGCAACGCAGCGUGGCACAGUGGCUGUGGCGAGACUGCC,0.01
19,GGCAGAGCGCAACGCAGCGUGGCACAGUGGCUGUGGCAAGACUGCC,0.01
20,GGCAGAGCGCAAGACGGCAUGGCAAAGUGGCUGUGGAUAGCCUGCC,0.03
